According to PubChem BioAssay AID1458 (National Center for Advancing Translational Sciences (NCATS), 2008):
Among all 210,000 compounds or so, about 5,900 (2.8%) were called active. The shares of active, inactive and inconclusive entries below differ from those in the screen. The call rests on the fitted dose curve; in most records, active means well fitted activation curve with a large enough effect; inconclusive means small, poorly fitted or top-dose-only effect; inactive means no such curve, though single readings can be large or run the other way. Where the call is inconclusive, the potency comes from a doubtful curve fit.

Assay: qHTS Assay for Enhancers of SMN2 Splice Variant Expression; further: nearly all actives have a fitted effect of over 55% in size; on activity change, positive = activation: % of control where 0% means no effect
Conditions: HEK293 SMN2-luciferase splicing reporter, luminescence, 30-36 h; activity change, positive = activation: at 46.1 µM (top of the series)
Procedure, shortened: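 HEK293 cells carry an SMN2 […]–luciferase reporter in which exon 7 inclusion puts luciferase in frame. Cells were plated 10-12 h before compound addition, then incubated 30-36 h at 37C. ONE-Glo luminescence was read; sodium butyrate at 4.5 mM final served as control.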
Potency means the concentration at half of the fitted maximal effect; tags describe the fitted curve by direction and shape.

| SMILES | Potency | activity change, positive = activation |
| --- | --- | --- |
| CCC(c1nnnn1CS(=O)(=O)c1ccc(C)cc1)N1CCN(c2nc3ccccc3s2)CC1 (stereo unspecified) | inactive |  |
| CCOc1ccc2nc(Cl)c(C3CC(c4ccco4)=NN3S(=O)(=O)c3ccccc3)cc2c1 (stereo unspecified) | inconclusive: 3.98 µM [activator, full curve, poor fit] |  |
| Cc1ccc(N=C(c2cccs2)N2CCOCC2)cc1 | active: 17.8 µM |  |
| Cc1cc(C(=O)COc2ccccc2Cl)c(C)n1-c1ccc2c(c1)OCO2 | inconclusive: 31.6 µM [activator, single point] |  |
| S=c1[nH]nc(Cc2cccc3ccccc23)n1-c1ccccc1 | inactive |  |
| Cn1c2ccccc2c2cc(C(=O)NNC(=O)CCl)sc21 | inconclusive: 12.6 µM [activator, single point] |  |
| COc1ccc([C@H]2[C@H](C(C)=O)N3N=Cc4ccccc4C3C23C(=O)OC(C)(C)OC3=O)cc1 (stereo partly specified) | inconclusive: 35.5 µM [activator, single point] |  |
| Cc1cc(C(=O)CN2CCCC2)c(C)n1-c1ccc(Cl)cc1 | inconclusive: 20 µM [activator, single point] |  |
| CCSc1nc2c(c(=O)[nH]1)C(c1cccnc1)C(C(=O)OC)=C(C)N2 (stereo unspecified) | inconclusive: 3.55 µM [activator, partial curve] |  |
| CCCCNC(=S)NNC(=O)c1csc2ccccc12 | inconclusive: 15.8 µM [activator, single point] |  |
| COC(=O)Nc1ccc(Oc2ccccc2)cc1 | inconclusive: 2 µM [activator, partial curve, poor fit] |  |
| O=C1CCCC/C1=C/Nc1ccc2c(c1)OCO2 | inconclusive: 14.1 µM [activator, single point] |  |
| CSc1ccc(-c2cc(=O)c3ccccc3o2)cc1 | active: 11.2 µM |  |
| COc1ccc(-n2c(=O)c3c4c(sc3n(Cc3ccc(C(C)(C)C)cc3)c2=O)CCC4)c(OC)c1 | inconclusive: 35.5 µM [activator, single point] |  |
| CC(=O)n1nc(-c2ccc(C)cc2)nc1NCc1ccco1 | inconclusive: 35.5 µM [activator, single point] |  |
| Cc1ccc(-c2ccc(CCC(=O)O)n2-c2cccc(C)c2C)cc1 | inactive |  |
| Cc1csc(NC(=O)c2cncc(Br)c2)n1 | active: 12.6 µM |  |
| CCOC(=O)C1CCCN(C(=O)CSc2ccccc2)C1 (stereo unspecified) | inconclusive: 20 µM [activator, single point] |  |
| CC1(C)Cc2nc3sc4c(SCC(=O)NCc5ccco5)ncnc4c3cc2CO1 | inconclusive: 1.26 µM [activator, full curve] |  |
| COc1ccc(N2CCN(CCCn3c(=S)[nH]c4ncccc4c3=O)CC2)cc1 |  | inconclusive: 165% [activator] |
| CC(C)n1c(SC2CCOC2=O)nc2ccccc21 (stereo unspecified) | inconclusive: 22.4 µM [activator, partial curve, poor fit] |  |
| C=CCn1c(=O)c2ccccc2n2c(SCC(=O)Nc3cc(C)on3)nnc12 | inactive |  |
| COc1ccc(OC)c(NC(=O)Cn2cnc3onc(-c4ccc(Cl)cc4)c3c2=O)c1 | inactive |  |

| SMILES | Potency | activity change, positive = activation |
| --- | --- | --- |
| CCOC(=O)c1ccc(NS(=O)(=O)c2ccc(Cl)nc2)cc1 | inactive |  |
| CCOc1cc(C2C(C#N)=C(N)Oc3n[nH]c(-c4ccccc4)c32)ccc1O (stereo unspecified) | inconclusive: 2.24 µM [activator, partial curve, poor fit] |  |
| COc1cc(OC)cc(C(=O)Oc2ccc(/C=N/Nc3nc4ccccc4s3)cc2OC)c1 | inconclusive: 25.1 µM [activator, single point] |  |
| CCOc1ccc(NC(=O)Cc2ccccc2)cc1 | active: 8.91 µM |  |
| Cc1cc(Br)cc2c1N(Cc1ccccc1OC(C)C)C(=O)C2=O | inactive |  |
| CCCCN(CC)C(=O)Cc1ccc(Br)cc1 | inactive |  |
| CCn1c2ccccc2c2cc(NC(=O)COc3cc(C)ccc3C)ccc21 | inconclusive: 0.0251 µM [activator, full curve, poor fit] |  |
| O=C(Cc1cccs1)Nc1nnc(-c2ccccc2)s1 | inconclusive: 6.31 µM [activator, full curve] |  |
| O=C(COC(=O)c1cccc(NC(=O)c2ccc(Br)cc2)c1)c1ccc(Cl)cc1 | inconclusive: 2.82 µM [activator, full curve] |  |
| Clc1cccc(Cl)c1CSc1nnc2ccccn12 | inconclusive: 14.1 µM [activator, partial curve, poor fit] |  |
| CC(C(=O)NCCC1=CCCCC1)c1ccc([N+](=O)[O-])cc1 (stereo unspecified) | inactive |  |
| CSc1nsc(SCC(=O)Nc2ccc(OC(C)=O)cc2)n1 | inconclusive: 20 µM [activator, partial curve] |  |
| CCc1ccc(NC(=O)C2C3C=CC(C4CC34)C2C(=O)O)cc1 (stereo unspecified) | inconclusive: 11.2 µM [activator, partial curve] |  |
| C=CCn1c(Cc2ccc(OC)cc2)nnc1SCc1nc2ccccc2c(=O)[nH]1 | inconclusive: 6.31 µM [activator, single point] |  |
| CCc1cc2c(SCC(=O)c3cccs3)ncnc2s1 | inconclusive: 14.1 µM [activator, single point] |  |
| Cc1ccc(/C=N/NC(=O)c2ccoc2C)o1 | inconclusive: 31.6 µM [activator, single point] |  |
| CCOC(=O)CSc1nc2ccc(Nc3nc(N4CCOCC4)nc(N4CCOCC4)n3)cc2s1 |  | inconclusive: 31.3% [activator] |
| Oc1ccc2ccccc2c1C=Nc1ccccc1-c1nc2ccccc2[nH]1 | inconclusive: 8.91 µM [activator, partial curve, poor fit] |  |
| COc1cc2c(cc1NC(=O)CCCN1C(=O)CCC1=O)oc1ccccc12 | inconclusive: 28.2 µM [activator, single point] |  |
| Cc1noc(C)c1C(=O)N1CCC2(CCCN(C(=O)Nc3ccccc3)C2)CC1 | inactive |  |
| C/C(CC(=O)Nc1ccc(N(C)C)cc1)=N\NC(=O)Cc1csc(N)n1 | inconclusive: 0.794 µM [activator, full curve] |  |
| Nc1ncnc2c1ncn2Cc1ccccc1 | inactive |  |
| CCN(CC)S(=O)(=O)c1ccc2c(c1)N(CC(=O)Nc1cccnc1Cl)C(=O)CO2 | inactive |  |
